Source: article PMC6919601, “Identification of Plasmodium dipeptidyl aminopeptidase allosteric inhibitors by high throughput screening” (PLoS ONE, 2019)
About 230 (0.21%) of roughly 110,000 compounds showed an effect of 50% or more. The list shows a part of the results.

target: DPAP1 (Plasmodium falciparum, UniProt Q8IIJ9); experiment: primary screen, percent inhibition; read by cleavage of a fluorogenic dipeptide substrate; higher = more effect of the substance; design: species or system P. falciparum D10 trophozoite lysates; single well
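Also: 30 min substrate incubation versus DMSO and 10 µM JCP410 controls.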

Chain of DPAP1 (Q8IIJ9 whole entry, looked up): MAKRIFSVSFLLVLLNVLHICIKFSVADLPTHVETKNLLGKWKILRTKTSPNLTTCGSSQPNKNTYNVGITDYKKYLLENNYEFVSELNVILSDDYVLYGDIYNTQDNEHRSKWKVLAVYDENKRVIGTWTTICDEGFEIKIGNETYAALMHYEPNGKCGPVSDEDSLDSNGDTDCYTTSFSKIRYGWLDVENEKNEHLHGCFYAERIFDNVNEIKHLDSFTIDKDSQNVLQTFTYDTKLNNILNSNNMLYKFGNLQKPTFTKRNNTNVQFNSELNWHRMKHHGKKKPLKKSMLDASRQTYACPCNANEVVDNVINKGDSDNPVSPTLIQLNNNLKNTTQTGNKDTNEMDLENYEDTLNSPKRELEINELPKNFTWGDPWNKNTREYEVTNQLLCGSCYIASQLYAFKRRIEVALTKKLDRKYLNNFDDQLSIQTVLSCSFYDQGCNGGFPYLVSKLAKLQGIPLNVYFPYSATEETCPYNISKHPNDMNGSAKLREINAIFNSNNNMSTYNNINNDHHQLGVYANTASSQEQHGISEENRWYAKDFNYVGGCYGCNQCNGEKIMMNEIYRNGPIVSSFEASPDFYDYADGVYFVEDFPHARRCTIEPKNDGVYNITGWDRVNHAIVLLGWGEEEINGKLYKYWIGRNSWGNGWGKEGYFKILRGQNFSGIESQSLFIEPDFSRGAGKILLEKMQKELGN

Compared with `COc1ccc(N(CC(=O)Nc2ccc(Br)cc2)S(C)(=O)=O)cc1Cl`, `Cc1ccc(NC(=O)/C=C/c2cccc([N+](=O)[O-])c2)cc1C` is higher in “% Inhibition @ 10 uM” value: -2.32% for the first, 4.6% for the second.

First: Cc1nc2nc(CSc3nc4ccccc4s3)cc(O)n2n1
Second: Cc1nnc(NC(=O)CSc2n[nH]c(-c3ccccc3)n2)s1
The “% Inhibition @ 10 uM” value of the first is lower: 0.221% for the first, 1.76% for the second.

First: CCOc1ccc(CCNS(=O)(=O)c2cc(Cl)c(C)cc2OC)cc1OCC
Second: CCOc1ccc(/C=C/C(O)=C2/C(=O)N(C)C3(C)CC2c2ccccc2O3)cc1OC (centres unmarked)
The “% Inhibition @ 10 uM” value of the first is lower: 0.883% for the first, 2.35% for the second.

Compared with `C(=C\c1cc(/C=C/c2ccccc2)ncn1)/c1ccccc1`, `O=c1c2oc3ccccc3c2ncn1C/C=C/c1ccccc1` is higher in “% Inhibition @ 10 uM” value: -5.51% for the first, -1.48% for the second.

Compared with `Cn1nc(Oc2nc(NC(C)(C)C)nc(N3CCOCC3)n2)ccc1=O`, `COc1ccc(-c2cc(C(F)(F)F)n3nc(C(=O)N4CCN(C(=O)c5ccco5)CC4)cc3n2)cc1` is lower in “% Inhibition @ 10 uM” value: 2.46% for the first, -2.23% for the second.

Going from `COc1ccc(C(=O)N2CCN(C(=O)c3ccc(OC)cc3)CC2)cc1` to `CCc1ccc(CNCc2c(C(=O)O)n(Cc3ccc(F)cc3)c3cc(OC)ccc23)cc1`, the “% Inhibition @ 10 uM” value rises from -1.61% to 1.53%.

Compared with `O=C(Cn1ncc2ccccc21)NC1CCCCCC1`, `Cn1c2ccccc2c2nnc(SCCCn3c(O)nc4ccccc43)nc21` is higher in “% Inhibition @ 10 uM” value: -3.47% for the first, 3.79% for the second.

Compared with `CCCN1C/C(=C/c2cccc(OC)c2OC)C(=O)/C(=C/c2cccc(OC)c2OC)C1`, `COc1cc(CNCc2cc(OC)ccc2OC)cc(OC)c1` is lower in “% Inhibition @ 10 uM” value: 8.55% for the first, -2.22% for the second.

Compared with `CCCCNC(=O)NS(=O)(=O)c1cnccc1Sc1ccc(Cl)cc1`, `Cc1cc(-c2ccc(C)c(S(=O)(=O)NCc3ccco3)c2)on1` is higher in “% Inhibition @ 10 uM” value: -2.74% for the first, 3.37% for the second.

Compared with `Cc1ccc(/C=N/N=C(\N)c2nonc2N)cc1`, `CC1=C(C(=O)Nc2cccc(C)n2)C(c2ccc3c(c2)OCO3)C2=C(O)CC(C)(C)CC2=N1` (centres unmarked) is lower in “% Inhibition @ 10 uM” value: 3.34% for the first, 0.674% for the second.

First: Cc1cccn2c(=O)c(/C=C(\C#N)S(=O)(=O)c3ccccc3)c(Oc3ccccc3Cl)nc12
Second: Cc1cccc(C[C@H](NC(=O)OCc2ccccc2)C(=O)NCC#N)c1
The “% Inhibition @ 10 uM” value of the first is higher: -3.23% for the first, -6.98% for the second.

Compared with `CCc1ccc(C2=CC(c3cc(Br)ccc3OC(F)F)n3nnnc3N2)cc1` (centres unmarked), `O=C1OC(c2cncc(Br)c2)=N/C1=C\c1ccc2c(c1)OCO2` is lower in “% Inhibition @ 10 uM” value: 1.66% for the first, -0.0894% for the second.

Going from `O=C1CCC(=O)N1C1=NC2=C(CCCC2)C2(CCCCC2)S1` to `O=C(O)CCC(=O)N1CCSc2ncccc21`, the “% Inhibition @ 10 uM” value rises from 0.324% to 7.75%.
